Measured values from PubChem BioAssay AID588342 (National Center for Advancing Translational Sciences (NCATS), 2011).
The whole screen tested about 360,000 compounds, of which about 25,000 (6.9%) were called active. Inconclusive means that the source gave no clear call. Such entries were picked first, then a sample of the others. The call rests on the fitted dose curve; in most records, active means well fitted inhibition curve with a large enough effect; inconclusive means small, poorly fitted or top-dose-only effect; inactive means flat fitted curve, though single readings scatter. Where the call is inconclusive, the potency comes from a doubtful curve fit.

target: Luciferin 4-monooxygenase (Photinus pyralis) (UniProt P08659); experiment: qHTS profiling assay for firefly luciferase inhibitor/activator using purifed enzyme and Km concentrations of substrates (counterscreen for miR-21 project); conditions: purified FLuc, luminescence inhibition; series mostly up to 57.5 µM; activity change, negative = inhibition: at the top concentration; further: nearly all actives have a fitted effect of over 55% in size;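 on activity change, negative = inhibition: plate controls were vehicle for no effect and reference inhibitor for full effect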
Chain of UniProt P08659 (P08659 whole entry, looked up): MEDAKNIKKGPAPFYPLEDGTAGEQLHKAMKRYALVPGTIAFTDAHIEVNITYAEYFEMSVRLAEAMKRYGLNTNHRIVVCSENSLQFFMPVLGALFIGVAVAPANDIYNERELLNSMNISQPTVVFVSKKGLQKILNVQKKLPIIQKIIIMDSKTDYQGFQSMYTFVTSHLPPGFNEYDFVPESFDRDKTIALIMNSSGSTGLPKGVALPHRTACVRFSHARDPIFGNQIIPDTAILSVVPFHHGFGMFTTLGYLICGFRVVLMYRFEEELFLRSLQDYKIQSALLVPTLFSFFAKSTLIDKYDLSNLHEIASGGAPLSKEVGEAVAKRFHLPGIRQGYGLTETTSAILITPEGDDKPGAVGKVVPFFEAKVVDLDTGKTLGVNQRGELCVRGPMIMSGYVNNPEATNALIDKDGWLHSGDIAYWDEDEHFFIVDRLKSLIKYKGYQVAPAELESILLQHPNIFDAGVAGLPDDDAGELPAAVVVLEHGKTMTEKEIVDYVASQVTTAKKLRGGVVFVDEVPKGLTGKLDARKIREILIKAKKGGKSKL
In short: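 Purified P. pyralis luciferase (10nM final) with 10uM D-luciferin and 10uM ATP (Km levels) in 50mM Tris acetate pH 7.5, 10mM Mg acetate, 0.01% Tween-20, 0.05% BSA; qHTS 6-point titration, ~60 µM downward; luminescence read.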
Potency means the concentration at half of the fitted maximal effect; tags describe the fitted curve by direction and shape.

| SMILES | Potency | activity change, negative = inhibition |
| --- | --- | --- |
| O=S1(=O)c2ccccc2N(Cc2ccc(F)cc2)c2ccccc21 | inconclusive: 21.3 µM [inhibitor, partial curve, poor fit] | – |
| CCCc1cc(=O)[nH]c(SCc2nc(-c3ccccc3)no2)n1 | inconclusive: 15.1 µM [inhibitor, partial curve] | – |
| CC/C(=N/NC(=O)c1ccccc1)c1ccc(OCCN2CCOCC2)cc1 | inconclusive: 37.9 µM [inhibitor, partial curve, poor fit] | – |
| O=C(NC1CCC(O)CC1)c1cc(-c2ccc(Cl)cc2)nc2ccccc12 (stereo unspecified) | inconclusive: 2.69 µM [inhibitor, full curve] | – |
| O=C(NCCOCCn1c(=O)oc2ccccc21)Nc1ccc(F)cc1F | – | inactive: -0.792% |
| O=C(Nc1nccs1)c1ccc(Cl)s1 | inconclusive: 26.9 µM [inhibitor, partial curve, poor fit] | – |
| Cc1cc2nc(-c3ccc(=O)[nH]c3)n(C)c2cc1C | active: 16.9 µM | – |
| COc1ccccc1N=Nc1ccc(O)c2ncccc12 | active: 6.75 µM | – |
| COc1ccc(Nc2nnc(-n3nc(C)cc3C)c3ccccc23)cc1 | inconclusive: 37.9 µM [inhibitor, partial curve, poor fit] | – |
| COc1ccc(-c2cc(C(=O)Oc3ccc(C#N)cc3)no2)cc1 | – | inactive: -9.02% |
| COc1cc(C2C3=C(Nc4nc(N)[nH]c(=O)c42)c2ccccc2C3=O)ccc1O (stereo unspecified) | inconclusive: 37.9 µM [inhibitor, partial curve, poor fit] | – |
| CC(C)C(C)(C#N)NC(=O)CSc1nc(C2CCCCC2)n(-c2ccccc2)n1 (stereo unspecified) | – | inactive: -1.52% |
| Cc1ccc(SCc2nc3ccccc3n2CC(=O)Nc2ccccc2)cc1 | active: 15.1 µM | – |
| Cc1ccc(OCC(=O)NNC(=O)CSc2nnc(-c3ccc(C)cc3)n2C)cc1 | inconclusive: 7.57 µM [inhibitor, partial curve, poor fit] | – |
| c1ccc2c(c1)oc1c(Nc3ccc4c(c3)OCO4)ncnc12 | active: 2.13 µM | – |
| COc1ccc(C(=O)NNC(=O)c2ccccn2)cc1 | active: 0.0849 µM | – |
| O=C(O)c1ccc(/C=N/NC(=O)c2ccc(Br)cc2)cc1 | active: 15.1 µM | – |
| CC(/C=N/N1CCN(c2ccccn2)CC1)=C\c1ccccc1 | inconclusive: 8.49 µM [inhibitor, partial curve] | – |
| Cc1ccc(C(=O)/C=C\C(=O)c2ccc(C)cc2)cc1 | inconclusive: 10.7 µM [inhibitor, partial curve] | – |
| COCCNC(=S)Nc1cc2oc3ccccc3c2cc1OC | inconclusive: 26.9 µM [inhibitor, single point] | – |
| COc1cccc(NC(=O)CN(C)C(=O)CNC(=O)c2ccc3ccccc3c2)c1 | inconclusive: 15.1 µM [inhibitor, partial curve] | – |
| N#Cc1cccc(C(=O)Nc2cccc(S(=O)(=O)N3CCCC3)c2)c1 | – | inactive: 1.15% |
| CC(=O)Nc1ccc(NC(=O)CSc2nnc(NC(=O)c3ccco3)s2)cc1 | active: 16.9 µM | – |

| SMILES | Potency | activity change, negative = inhibition |
| --- | --- | --- |
| O=C(C1CC(c2ccccc2O)=NO1)N1CCCC1 (stereo unspecified) | inconclusive: 19 µM [inhibitor, partial curve, poor fit] | – |
| COc1cccc(-c2ccc(SCC(=O)N3CCc4ccccc43)nn2)c1 | active: 21.3 µM | – |
| CC1CCCCN1CCCNC(=O)Cn1ncc2c3ccccc3n(Cc3ccccc3)c2c1=O (stereo unspecified) | – | inactive: 0.274% |
| COC(=O)c1cc(C(=O)OC)cc(N2C(=O)CN=C2Nc2nc(C)cc(C)n2)c1 | – | inactive: 0.075% |
| COc1ccccc1-c1nnc(-c2ccc(N3CCOCC3)cc2)o1 | active: 19 µM | – |
| O=C(CCc1ccccc1)NC(=S)Nc1cccc(C(=O)O)c1 | active: 4.78 µM | – |
| Cc1[nH]c2ccccc2c1Cc1nnc(SCC(=O)NCc2ccco2)o1 | – | inactive: 1.32% |
| COc1ccc(S(=O)(=O)Nc2nnc(Cc3ccc(OC)c(OC)c3)s2)cc1 | inconclusive: 37.9 µM [inhibitor, partial curve, poor fit] | – |
| O=C(Nc1ccc(N2C(=O)C3C4C=CC(C4)C3C2=O)cc1)Nc1nnc(C(F)(F)F)s1 (stereo unspecified) | inconclusive: 26.9 µM [inhibitor, single point] | – |
| O=C(/C=C/c1ccccc1)N1CCOCC1 | inconclusive: 26.9 µM [inhibitor, single point] | – |
| CCc1nc2ccc(C(=O)Nc3cccc(C(C)=O)c3)cc2nc1CC | inconclusive: 16.9 µM [inhibitor, partial curve, poor fit] | – |
| O=C(N/N=C/c1ccccn1)c1ccc(NC(=O)c2ccccc2Cl)cc1 | inconclusive: 21.3 µM [inhibitor, partial curve, poor fit] | – |
| Cc1ccc(NC(=O)COC(=O)C2CC2)cc1Cl | active: 15.1 µM | – |
| COc1ccc(N(Cc2ccccc2)S(=O)(=O)c2cccc(C(=O)NCC3CCCO3)c2)cc1 (stereo unspecified) | inconclusive: 8.49 µM [inhibitor, full curve, poor fit] | – |
| CC1CCC2=NN(C(=O)c3ccco3)C(O)(C(F)(F)F)C2C1 (stereo unspecified) | inconclusive: 0.0054 µM [inhibitor, full curve] | – |
| O=C(Nc1ccccc1C(=O)Nc1ccc2c(c1)OCO2)c1cccs1 | inconclusive: 23.9 µM [inhibitor, partial curve] | – |
| O=C(Nc1ccccc1F)c1ccc2nc(N3C(=O)CCC3=O)sc2c1 | inconclusive: 16.9 µM [inhibitor, partial curve] | – |
| COc1cc(OC)c(C(=O)NC23CC4CC(CC(C4)C2)C3)cc1OC | inconclusive: 26.9 µM [inhibitor, partial curve, poor fit] | – |
| COc1cc(C(=O)Nn2c(O)c(C3=c4ccccc4=NC3=O)sc2=S)ccc1O | inconclusive: 37.9 µM [inhibitor, partial curve, poor fit] | – |
| O=C(NCc1ccco1)C1CCC(N2C(=O)C3C4CCC(C4)C3C2=O)CC1 (stereo unspecified) | inconclusive: 19 µM [inhibitor, partial curve] | – |
| CC(=O)Nc1cccc(NC(=O)CSc2nnc(NC(=O)c3ccco3)s2)c1 | active: 19 µM | – |
| Cc1cc(NC(=O)CSc2nc(C(C)C)nc3c2c(=O)n(C)c(=O)n3C)no1 | – | inactive: -0.0447% |
| CCCN(C(=O)CSc1nnnn1-c1ccccc1OC)C1CCS(=O)(=O)C1 (stereo unspecified) | – | inactive: 4.04% |
